About 550 (1.1%) of roughly 48,000 compounds were called active. About 4% were inconclusive and are not listed. No stated cut-off is given here; in the data, active means potency below about 15 µM; inconclusive means mostly about 16 µM to 33 µM; inactive means weaker than that. Some of the results follow.
These compounds were tested against Lysosomal acid glucosylceramidase (Homo sapiens) (UniProt P04062) (assay: Glucocerebrosidase). Settings: purified enzyme, resorufin glucoside fluorescence (screen aimed at inhibitors), 20 min; series mostly up to 77 µM.
Sequence of UniProt P04062 (P04062 whole entry, looked up): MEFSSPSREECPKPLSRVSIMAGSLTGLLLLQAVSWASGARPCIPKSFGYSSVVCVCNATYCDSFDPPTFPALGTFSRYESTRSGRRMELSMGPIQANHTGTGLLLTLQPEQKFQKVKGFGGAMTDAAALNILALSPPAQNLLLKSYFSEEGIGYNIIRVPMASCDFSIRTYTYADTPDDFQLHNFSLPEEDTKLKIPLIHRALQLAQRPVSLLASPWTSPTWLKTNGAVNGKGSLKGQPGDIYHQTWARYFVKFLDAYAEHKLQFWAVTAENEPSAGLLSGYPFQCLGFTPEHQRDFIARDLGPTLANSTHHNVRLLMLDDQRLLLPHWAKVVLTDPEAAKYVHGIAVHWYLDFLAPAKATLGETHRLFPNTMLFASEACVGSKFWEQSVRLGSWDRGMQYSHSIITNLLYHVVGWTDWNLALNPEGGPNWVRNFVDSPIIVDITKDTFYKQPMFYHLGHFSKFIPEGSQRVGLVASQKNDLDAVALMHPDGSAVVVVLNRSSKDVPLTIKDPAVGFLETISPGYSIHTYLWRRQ
How it was run: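 Wild-type enzyme at 0.2 nM final in 50mM citric acid/KH2PO4, 10mM sodium taurocholate, 0.01% tween-20, pH 5.9, with resorufin beta-D-glucopyranoside at 30 uM final. Compounds titrated, 20 min at RT, red fluorescence read; AC50 from titration.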
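Further: the screen sought inhibitors.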
Potency means the concentration at half of the fitted maximal effect.

Potency, inactive:
O=C(CSc1nnnn1-c1ccccc1)N1CCc2ccccc2C1 > 76.9 µM
CCN(C1CCCCC1)S(=O)(=O)c1cc(C)ccc1OC > 76.9 µM
COc1cccc(-n2c(Cc3cc(=O)[nH]c(=O)[nH]3)nnc2SCC(=O)N2CCC(C)CC2)c1 > 76.9 µM
O=C1C2CCCN2C(c2ccccc2F)N1c1ccc(F)cc1 (stereo not drawn) > 76.9 µM
Cc1cc(NC(=O)C2(c3ccccc3)CCCC2)no1 > 76.9 µM
O=C(CSc1nnc(CCCO)n1-c1ccccc1)NCCc1ccccc1 > 76.9 µM
O=C(Nc1ccccc1)NC1CS(=O)(=O)CC1O (stereo not drawn) > 76.9 µM
CC(=O)Nc1ccc(S(=O)(=O)N2CCC(N(C)CCC(C)C)CC2)cc1 > 76.9 µM
CC12CCC(C(=O)NCc3ccccc3)(OC1=O)C2(C)C (stereo not drawn) > 76.9 µM
CSCC[C@@H](Nc1nc(-c2ccccc2)nc2c1oc1ccccc12)C(=O)O > 76.9 µM
Cc1cc(NC(=O)CSc2nc3ccccc3[nH]2)no1 > 76.9 µM
Cc1c(C(=O)NCc2cccnc2)oc2ccc(S(=O)(=O)N3CCCCC3)cc12 > 76.9 µM
CCCCOC(=O)c1cc(=O)[nH]c2ccccc12 > 76.9 µM
COc1ccc2c(c1)c(=O)oc1cc(OCC(=O)N3CCCC(C)C3)ccc12 (stereo not drawn) > 76.9 µM
NC(=O)C1CCN(Cc2nc(-c3ccccc3)no2)CC1 > 76.9 µM
Fc1ccc(CSc2nnc(-c3cccs3)o2)cc1 > 76.9 µM
COc1cc(C2CC(=O)Nc3ccccc3S2)cc(OC)c1OC (stereo not drawn) > 76.9 µM
COCCN1Cc2cccc(C(=O)Nc3ccccc3OC)c2C1=O > 76.9 µM
Cc1ccc(-c2nc(S(=O)(=O)c3ccc(F)cc3)c(SCC(=O)NCC3CCCO3)o2)cc1 (stereo not drawn) > 76.9 µM
O=C(Cn1nc(-c2ccccc2)nc1-c1ccccc1)N1CCOCC1 > 76.9 µM
O=C(NC1CC2CCCC(C1)N2C(=O)Nc1ccccc1)c1ccncc1 (stereo not drawn) > 76.9 µM
CS(=O)(=O)N1CCc2cc(C(=O)N3CCCCC3)ccc21 > 76.9 µM
CCCOc1ccc(C(=O)N2CCCC2C(=O)O)cc1 (stereo not drawn) > 76.9 µM
NC(=O)c1ccccc1-c1nc(-c2ccccc2)no1 > 76.9 µM
CCC1Oc2ccc(C)cc2N(CC(=O)N(Cc2ccc3c(c2)OCO3)CC2CCCO2)C1=O (stereo not drawn) > 76.9 µM
CN(C)C(=O)N1CCCC(C(=O)NCc2cccs2)C1 (stereo not drawn) > 76.9 µM
CCOC(=O)c1ccccc1NC(=O)CN1C(=O)c2ccccc2S1(=O)=O > 76.9 µM
CCc1nnc(NC2=NCCC2)s1 > 76.9 µM
CC12CC(NC(=O)N1CCc1ccccc1)c1ccccc1O2 (stereo not drawn) > 76.9 µM
COc1ccc2[nH]cc(CCN=C3SCC(=O)N3C)c2c1 > 76.9 µM
CCc1ccc2[nH]cc(C(=O)OCCOC)c(=O)c2c1 > 76.9 µM
O=C(CCN1CCc2ccccc2C1)Nc1ccccc1F > 76.9 µM
O=C(c1cccs1)N1CCN(C2CCCCC2)CC1 > 76.9 µM
CN(C(=O)CN1CCC(NC(=O)C2CCCCC2)CC1)C1CCCCC1 > 76.9 µM
O=c1ccc2cc(S(=O)(=O)N3CCN(c4ccccc4)CC3)ccc2o1 > 76.9 µM
CCc1nc(SCc2cccnc2)[nH]c(=O)c1C > 76.9 µM
C/C(N)=C(/C#N)C(=O)COC(=O)C(NS(=O)(=O)c1ccc(Cl)cc1)C(C)O (stereo not drawn) > 76.9 µM
COc1ccccc1C(=O)NCCNC(=O)c1ccco1 > 76.9 µM
O=C(NCc1ccc2c(c1)OCO2)C1CC(=O)N(C2CCCC2)C1 (stereo not drawn) > 76.9 µM
CCN1CCN(C(=O)CCN2C(=O)COc3ccc(C)cc32)CC1 > 76.9 µM
CCOC(=O)N1CCN(C(=O)C2CCN(c3ncnc4c3sc3cccc(F)c34)CC2)CC1 > 76.9 µM
Cc1csc2nc3ccccc3c(=O)n12 > 76.9 µM
Cc1[nH]c(=O)[nH]c(=O)c1S(=O)(=O)N1CCC(C(=O)N2CCN(Cc3ccccc3)CC2)CC1 > 76.9 µM
c1csc(-c2nn3c(Cn4cnc5ccccc54)nnc3s2)c1 > 76.9 µM
COc1ccc(S(=O)(=O)n2nc(OC(=O)c3ccccc3)cc2N)cc1 > 76.9 µM
COc1cc2nc(NC(=O)c3ccccc3)[nH]c(=O)c2cc1OC > 76.9 µM
Cc1csc(NC(=O)c2c(O)c3c(n(CC(C)C)c2=O)CCCC3)n1 > 76.9 µM
O=C(O)Cn1nc(-c2ccc(F)cc2)oc1=O > 76.9 µM
NC(=O)C1CCN(C(c2ccccc2Cl)c2nnnn2CC2CCCO2)CC1 (stereo not drawn) > 76.9 µM
COC(=O)C1=C(C)n2nnnc2NC1c1cc2ccccc2o1 (stereo not drawn) > 76.9 µM
O=C(NC1CCN(C(=O)NC2CCCCC2)CC1)c1ccco1 > 76.9 µM
O=C(NCCOc1ccccc1)c1ccc2c(c1)OCO2 > 76.9 µM
CCOCCCn1c(=S)[nH]c2cc(C(=O)N3CCOCC3)ccc2c1=O > 76.9 µM
N#Cc1nc(Cc2ccccc2)oc1N1CCN(c2cccc(Cl)c2)CC1 > 76.9 µM
CC(CCc1ccccc1)NC(=O)C1CCN(S(=O)(=O)c2cnc[nH]2)CC1 (stereo not drawn) > 76.9 µM
O=C(Nc1ccc2nsnc2c1)c1ccc2c(c1)OCO2 > 76.9 µM
COC(=O)Nc1nnc(CCc2ccccc2)s1 > 76.9 µM
CC12CC(NC(=O)N1c1cccc(C(=O)Nc3ncn[nH]3)c1)c1ccccc1O2 (stereo not drawn) > 76.9 µM
CCCCOc1ccc(NC(=O)CSCC(=O)OCC)cc1 > 76.9 µM
CC1Oc2ccccc2N(Cc2ccccc2Cl)C1=O (stereo not drawn) > 76.9 µM
Cc1ccc(-c2ccc(CCC(=O)O)n2NC(=O)c2cccs2)cc1 > 76.9 µM
c1ccc(-c2nnc(-c3ccccn3)nn2)nc1 > 76.9 µM
Nn1c(CSc2nc3ccccc3o2)nnc1CSc1nc2ccccc2o1 > 76.9 µM
CCn1nnnc1SCC(=O)Nc1nc(-c2cccs2)cs1 > 76.9 µM
COC(=O)c1cc(Br)ccc1OC(=O)c1cccnc1 > 76.9 µM
CCOC(=O)c1c(O)c2c(n(Cc3ccco3)c1=O)CCCC2 > 76.9 µM
C=CCc1cccc2cc(C(=O)N3CCN(C(=O)OCC)CC3)c(=O)oc12 > 76.9 µM
CCOCCCNC(=O)N[C@@H](C)C(=O)OC > 76.9 µM
CC1(C)NC(=O)N(CC(O)CN2CCCCC2)C1=O (stereo not drawn)
Cc1occc1-c1nnc(SCC(=O)NC(=O)NC(C)C)n1N > 76.9 µM
O=C(CN(Cc1ccco1)C(=O)CNS(=O)(=O)c1ccccc1)NCc1ccc(F)cc1 > 76.9 µM
Cc1cc(C)n2c(SCC(=O)N(C)C3CCS(=O)(=O)C3)nnc2n1 (stereo not drawn) > 76.9 µM
Cc1ccc2cc3cc(C(=O)N4CCCCCC4)oc3nc2c1 > 76.9 µM
CC(C)Oc1ccc(NC(=O)C2CCCNC2=O)cc1 (stereo not drawn) > 76.9 µM
Cc1c(Cl)cccc1Nc1nc(N)nc(CSCCO)n1 > 76.9 µM
O=C(Oc1ccc2ccccc2c1Cl)N1CCCC1 > 76.9 µM
Cc1cc2c(=O)n(NC(N)=O)c(C)nc2s1 > 76.9 µM
CCCCCOC(=O)NCCOC(=O)Nc1ccc(C(=O)OCC)cc1 > 76.9 µM
CCOc1ccc(-c2nc(S(=O)(=O)c3ccccc3)c(NCc3cccnc3)o2)cc1 > 76.9 µM
COc1ccc(-c2cc(CCCC(=O)NCCc3ccc(OC)cc3OC)no2)cc1 > 76.9 µM
Cc1ccc2c(c1)nnn2C1CCN(S(=O)(=O)c2ccc(C(=O)N(C)C)cc2)CC1 > 76.9 µM
CCC1Oc2ccccc2N(CC(=O)NCCCN2CCCCC2C)C1=O (stereo not drawn) > 76.9 µM
Cc1ccc2c(C(=O)CN3CCCC3)c(C)[nH]c2c1 > 76.9 µM
Cc1ccc(S(=O)(=O)N2Cc3ccccc3CC2C(=O)Nc2cc(C)on2)cc1 (stereo not drawn) > 76.9 µM
O=C(NCC1CCCO1)C1c2ccccc2C(=O)N1C1CCCCCC1 (stereo not drawn) > 76.9 µM
CCOC(=O)N1CCOCCOCCN(C(=O)OCC)CCOCC1 > 76.9 µM
COc1ccccc1NC(=O)Cn1c(=O)oc2ccccc21 > 76.9 µM
CCCC(=O)Nc1ccc2oc(-c3ccc(OC)c(Br)c3)nc2c1 > 76.9 µM
COc1ccc(N(Cc2cc3cc(OC)ccc3[nH]c2=O)C(=O)C2CCCO2)cc1 (stereo not drawn) > 76.9 µM
CS(=O)(=O)N(Cc1ccccc1)c1ccc(C(=O)N2CCOCC2)cc1 > 76.9 µM
CCCSc1oc(-c2ccco2)nc1S(=O)(=O)c1ccccc1 > 76.9 µM
CCOC(=O)C1CCN(Cc2coc3ccc(Cl)cc3c2=O)CC1 > 76.9 µM
O=C(O)Cn1cccc1C(=O)c1ccccc1 > 76.9 µM

Source: PubChem BioAssay AID360 (National Center for Advancing Translational Sciences (NCATS), 2006)
